# The other results are listed elsewhere or left out.
# B1: chrX:100668114:100668115:+_ENSG00000126945_ENST00000316594|hu_hu|FALSE|FALSE (ssRNA)
# RNA: GGGAGUUCUACAGUCCGACGAUCUCCCAUCAUUUGGCUACCAUAAGCGCCACCACUUGCCCCUGCUGUAGAAUUCAAAAAAAGUUCUACAUAGCUGUGAUCGUAAGCACCCCCACUUGUUCCUGCAGUAGAAUUUAAGAAGAGCAACAGAGGAUUGAGCAUCA
# B2: chrX:71025408:71025409:-_ENSMUSG00000002010_ENSMUST00000052761|mus_mus|FALSE|FALSE (ssRNA)
# RNA: GGGAGUUCUACAGUCCGACGAUCGAAUACUGCAUACACAUGGCCAUAGUUGGCCCCAGCCACAAGGCCUGGGCCUCCAACUAGCCCUGCACAGACGUUGUUGACAAUGUUACCAUAGAGAUUAGGCAUCACCAUGACAUCAAACAACAGAGGAUUGAGCAUCA
# B3: chr19:16212804:16212805:+_ENSG00000167460_ENST00000300933|hu_mus|hu_hu_hu_mus_False|1_58 (ssRNA)
# RNA: GGGAGUUCUACAGUCCGACGAUCAACAAUUCUGGAGUGAAGGAAAGAUGUAACAUGGAACAGCAUUAAAGCUCAGUAUUACUAUAUAUGGGCAACAAUGAUCACCCCAGCAUUCUCGCUUGGAAUGCUUAAAGACAGAUGUUUCAACAGAGGAUUGAGCAUCA
# B4: chr14:89307221:89307222:+_ENSG00000165533_ENST00000346301|hu_mus|hu_hu_hu_mus_False|58_88 (ssRNA)
# RNA: GGGAGUUCUACAGUCCGACGAUCUCCUGUUUGGUUAGUGCCAGGGAGUUUCAAAGAUGUGCCAGGGCGUGGGACCUGAGCUAUAGCAUUUUCAUCCAGGAUCAUUUCAGCAAUUCCUUCCUGGUCCACAUCAAUUUCAUCUAUCAACAGAGGAUUGAGCAUCA
# B5: chr6:38652254:38652255:-_ENSG00000124767_ENST00000373365|hu_hu|hu_hu_hu_mus_False|68_78 (ssRNA)
# RNA: GGGAGUUCUACAGUCCGACGAUCCGAGAACUUCAUAGCAGGGAAGUCAAGCUUCUGGAUUAGCGUCAUUCCAAGAACCCUCGUAUAAAAAUCCAGGGACUUCUUAGGAUCCUUAAUUCUUAGCAUCGUUUGCUGCAGUAGAAACAACAGAGGAUUGAGCAUCA
# B6: chr12:85022504:85022505:+_ENSMUSG00000010608_ENSMUST00000048155|mus_mus|motif|central (ssRNA)
# RNA: GGGAGUUCUACAGUCCGACGAUCCACAAGGCCAAUUUUCUUGGCUUCUGUUUCAUAUAUCAAUAAUCUCCACAUUUUGACGGUAAAAACUUCUGCUUCUUCAUCUAGUACCAUGGCAACAUCAUCUAAAAUGCUCUGUGGUGACAACAGAGGAUUGAGCAUCA
# B7: chr14:103931940:103931941:+_ENSG00000075413_ENST00000216288|hu_hu|motif|central (ssRNA)
# RNA: GGGAGUUCUACAGUCCGACGAUCACAAAACGUGUCGAGUUUACCGCCAACAGUAAAUUCAUUGCUAAAACCGAAAUCUGCGGUUUUAAUGUUCAUAUCGGCAUCUAACAAUAGAUUUUCAGCCUUGAGGUCUCGAUGUACGAUCAACAGAGGAUUGAGCAUCA
# B8: chrX:140365796:140365797:-_ENSMUSG00000031285_ENSMUST00000033642|mus_mus|mus_mus_mus_hu_False|8_98 (ssRNA)
# RNA: GGGAGUUCUACAGUCCGACGAUCCUUCUCAUUACUCAAUGCCUGCAAGGUUCUGGUUCGGUAGAAGCUACAGUGGGCGCUGUGAGUGGGGCUAGGCAACCCAUUCAUCCGGGAGCCUCGCAUGUUCCUAGAUGCUUUAUCUCUCAACAGAGGAUUGAGCAUCA
# B9: chr8:117878989:117878990:-_ENSG00000164754_ENST00000297338|hu_hu|hu_hu_hu_mus_True|8_68 (ssRNA)
# RNA: GGGAGUUCUACAGUCCGACGAUCCCAGAGGCCCUCGUUUACUGAGGACAAAAUGUGCGUAGAACAUUGUUCUGGCUUGCUAUGAAAUAAGAAGAAACCUGGAUCUCGGCGGGGAGCCGGGAGGGGUUGGGUGGCCCGGGAGGGCAACAGAGGAUUGAGCAUCA
# B10: 10871457_10871577_264_CDS_ENSMUSG00000090112_ENSMUST00000044053|mouse|control|control (ssRNA)
# RNA: GGGAGUUCUACAGUCCGACGAUCACAGGCCUGUUCCCCGACCGUCAUGGUGAGCGGCUCACUCCUCAGGUCCUCAUGCAUGUUCCAGUGAAGCUGCUGUUGCCUUUCUUCAUCGACCUUCAUCGGGGGAGCACGUUUCCUUCGCAACAGAGGAUUGAGCAUCA
# B11: chr4:123032474:123032475:-_ENSMUSG00000028649_ENSMUST00000154824|mus_mus|FALSE|FALSE (ssRNA)
# RNA: GGGAGUUCUACAGUCCGACGAUCUGACCGGAAUGGAGUCAUCCCCUGAGAUGCCCCUUCUGGCAGGAUGAAUUUCUCUCUAAGUUCUAUGUUAGUUCUGCCUCGUGCUCGGCAGGGGUCAUUUUUCACUAGAAACUCGUCCAGCAACAGAGGAUUGAGCAUCA
# B12: chr1:46159212:46159213:+_ENSG00000159596_ENST00000372025|hu_mus|hu_hu_hu_mus_True|1_98 (ssRNA)
# RNA: GGGAGUUCUACAGUCCGACGAUCUCUGAUCCCUCCCAAGAAAGAUAGGAAACCGGCUCCAUAAGCCAUCUGAGUGAAAGCUAGGACGGGGAUAUAAGACUUUGUUAUUACCAUGAGAAGUGGGGGAGCAGUAAAGGGGAUUAGCAACAGAGGAUUGAGCAUCA
# B13: 37430299_37430419_11376_3pUTR_ENSMUSG00000026915_ENSMUST00000028279|mouse|control|control (ssRNA)
# RNA: GGGAGUUCUACAGUCCGACGAUCGCAGCUCAUAGCUUCAGCAUAUGCUAUCACAUCCCACAGUACACUUCUUACCUUCUGUUCUUCCAAAGCACCUCACCUGCCCUCAUGUGGCACCUUCACAUCAAAAUGCCCACUUGUCUACAACAGAGGAUUGAGCAUCA
# B14: chr4:144460044:144460045:+_ENSG00000153147_ENST00000283131|hu_mus|hu_hu_hu_mus_False|1_18 (ssRNA)
# RNA: GGGAGUUCUACAGUCCGACGAUCACGGUCCAUAGCCUGAAGAUCAACUUGCGGAUUCCAAUCUGAGUCAUAUAAAAUGACUACAUCAGCAGUUGCAAGAUUGAUGCCCAGACCACCAGCACGCGUGCUUAGCAUAAAAACAAACAACAGAGGAUUGAGCAUCA
# Target: T1, UNK ZnF1-3 (human, UniProt Q9C0B0 31-174)
# T1 sequence: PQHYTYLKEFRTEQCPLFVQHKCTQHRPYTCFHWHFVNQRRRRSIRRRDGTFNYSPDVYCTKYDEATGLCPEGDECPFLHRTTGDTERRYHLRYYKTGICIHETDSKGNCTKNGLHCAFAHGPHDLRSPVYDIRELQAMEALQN
# Assay: nsRBNS (natural sequence RNA bind-n-seq); RBNS binding buffer (assumed for nsRBNS): 25 mM Tris pH 7.5, 150 mM KCl, 3 mM MgCl2, 0.01% Triton X-100, 500 ug/ml BSA, 20 U/ml SUPERase-In, 4 C; UNK is unkempt and MSI1 is Musashi-1; names of the RNAs are library labels; protein concentration not given here; high values mean tight binding
row,Binder,binding signal
1,B1,2 enrichment R
2,B2,1.09 enrichment R
3,B3,1.33 enrichment R
4,B4,0.879 enrichment R
5,B5,1.28 enrichment R
6,B6,0.989 enrichment R
7,B7,0.583 enrichment R
8,B8,0.752 enrichment R
9,B9,1.48 enrichment R
10,B10,0.524 enrichment R
11,B11,0.607 enrichment R
12,B12,1.6 enrichment R
13,B13,1.13 enrichment R
14,B14,1.01 enrichment R
